Assay results: PubChem BioAssay AID504466 (National Center for Advancing Translational Sciences (NCATS), 2011)
Screen size: about 330,000 compounds; about 4,200 (1.3%) were called active. Inconclusive means that the source gave no clear call. Such entries were picked first, then a sample of the others. Calls come from the whole dose curve; as a rule, active = well fitted activation curve with a large enough effect; inconclusive = small, poorly fitted or top-dose-only effect; inactive = no such curve, though single readings can be large or run the other way. Potencies of inconclusive entries are doubtful fits and often do not repeat.

Assay: qHTS screen for small molecules that induce genotoxicity in human embryonic kidney (HEK293T) cells expressing luciferase-tagged ELG1; note: nearly all actives have a fitted effect of over 60% in size; for activity change, positive = activation: % of control where 0% means no effect
Conditions: HEK293T ELG1-luciferase reporter, luminescence, 16 h; series mostly up to 46 µM; activity change, positive = activation: at the top concentration
Method in brief: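 Screening used a luciferase reporter fused to human ELG1 in HEK293T cells. Luminescence was read on a CCD plate imager after 16 hr exposure and 30 min ONE-Glo incubation.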
Potency is the fitted concentration of half-maximal effect; tags give direction and shape of the fitted curve.

Compound | Potency | activity change, positive = activation
Cc1nn2c(N)c(-c3ccccc3)cnc2c1-c1ccccc1 | inconclusive: 3.26 µM [activator, full curve, poor fit] | –
CC1(C)CC(=O)C(C=Nc2ccc3c(c2)OCO3)=C(O)C1 | inconclusive: 18.4 µM [activator, partial curve, poor fit] | –
COc1ccc(C(=O)Nc2cccc(N(C)S(C)(=O)=O)c2)cc1OC | active: 16.4 µM | –
c1ccc(N2CCCCC2)c(NC2=NCCC2)c1 | – | inactive: -7%
CCn1c(=S)ccc2ccc(OC)cc21 | inconclusive: 23.1 µM [activator, single point] | –
O=c1[nH]c(=S)n(-c2cccc(C(F)(F)F)c2)c(O)c1C=NCCN1CCNCC1 | – | inactive: -2.78%
Cc1ccc(NC(=O)C[n+]2ccccc2)cc1[N+](=O)[O-] | – | inactive: 0.812%
Cc1ccc(C)c(-c2csc(Nc3ncccn3)n2)c1 | – | inactive: 6.84%
Cn1cccc1C(=O)NNC(=O)COc1ccccc1F | inconclusive: 18.3 µM [activator, single point] | –
CC(=O)Nc1ccc2c(c1)C(=O)N(c1ccc(C)cc1)C2=O | inconclusive: 29.1 µM [activator, single point] | –
CCc1cc(C(=O)NC2CCCN(Cc3ccccc3F)C2)n(C)n1 (centres undefined) | – | inactive: -2.42%
COc1ccc(Br)cc1CNC(=O)Cn1nc(C)n2cccc2c1=O | – | inactive: -0.173%
Nc1nc(-c2ccc(-c3ccccc3)cc2)cs1 | inconclusive: 2.31 µM [activator, partial curve] | –
COc1ccc(-n2nc(C(=O)NCC(=O)N3CCC(C(N)=O)CC3)c3ccccc3c2=O)cc1 | inconclusive: 32.6 µM [activator, single point] | –
COc1ccc(S(=O)(=O)N2Cc3ccccc3CC2C(=O)Nc2nccs2)cc1OC (centres undefined) | active: 5.8 µM | –
COc1cc([C@@H]2C[C@H]3CN(c4ccccc4)C(=O)[C@]34CCCN24)cc(OC)c1OC | – | inactive: -4.45%
CC(C)(C)NC(=O)NC(=O)COC(=O)c1c(F)cccc1Cl | inconclusive: 20.6 µM [activator, partial curve, poor fit] | –
CCOc1ccc2nc(SCC(=O)c3ccccc3)sc2c1 | active: 18.4 µM | –
Cc1ccccc1-c1nnc(-c2ccccc2C)o1 | inconclusive: 18.4 µM [activator, single point] | –
CCOC(=O)C(CC(=O)Nc1nc(C(C)=O)c(C)s1)C(C)c1ccccc1 (centres undefined) | – | inactive: -5.02%
CCc1nc(SCc2ccc(Br)cc2)n[nH]1 | inconclusive: 18.3 µM [activator, single point] | –
Cc1ccc(NC(=O)c2ccc3c(c2)OCCO3)cc1 | inconclusive: 0.291 µM [activator, partial curve] | –
CN(C)CCCNC(=O)c1ccc(-c2nc(-c3ccc(Cl)cc3)cs2)cc1 | inconclusive: 23.1 µM [activator, partial curve] | –
CCn1cc(Br)c(C(=O)Nc2ccc(OC)cc2)n1 | inconclusive: 13 µM [activator, partial curve] | –
O=C(CSc1nnc(-c2cccc(Br)c2)o1)N1CCNC1=O | inconclusive: 9.2 µM [activator, partial curve, poor fit] | –

Compound | Potency | activity change, positive = activation
CC(=O)C1=C(c2ccccc2)NC(=O)NC1c1ccc2c(c1)OCO2 (centres undefined) | inconclusive: 20.6 µM [activator, partial curve, poor fit] | –
CCC(=O)Nc1cc(C(=O)OCC(=O)c2ccccc2)ccc1C | inconclusive: 20.6 µM [activator, partial curve] | –
NCc1cccc(CNc2ccc([N+](=O)[O-])cc2C(N)=O)c1 | inconclusive: 23.1 µM [activator, single point] | –
CCOC(=O)c1c(C)nc2c3ccccc3ccn12 | active: 4.11 µM | –
C(=C\c1ccccn1)/c1cccnc1 | inconclusive: 20.6 µM [activator, partial curve, poor fit] | –
CCCOc1ccc(OCCSc2ncccn2)cc1 | active: 10.3 µM | –
CCC(C)(C(=O)NC1CCCCC1)N(C)C(=O)c1ccccn1 (centres undefined) | – | inactive: -0.313%
CN(C)/C=C/C(=O)/C=C/c1ccc(Cl)cc1Cl | inconclusive: 11.6 µM [activator, partial curve] | –
Cc1ccc2oc(C(=O)NCCC3CCCCO3)c(C)c2c1 (centres undefined) | active: 3.66 µM | –
CCCC(=O)c1cc(F)c(N2CCOCC2)cc1C | – | inactive: 13.2%
COC(=O)c1ccc(OC)c(Cn2c(=O)n(C)c(=O)c3sccc32)c1 | inconclusive: 20.6 µM [activator, single point] | –
c1csc(-c2ccc3ccccc3n2)c1 | inconclusive: 16.4 µM [activator, single point] | –
Cc1cc2nn(-c3ccc(Cl)cc3)nc2cc1N | inconclusive: 0.517 µM [activator, full curve] | –
Cc1cc(C2=NNC(=NC3CCCCC3)SC2)c(C)n1-c1c(C)n(C)n(-c2ccccc2)c1=O | – | inactive: -0.0076%
Cc1ccc(NC(=S)N2CCSC2c2cccs2)cc1 (centres undefined) | – | inactive: 10.6%
CC(OC(=O)CCN=C1NS(=O)(=O)c2ccccc21)C(=O)NCc1ccccc1 (centres undefined) | inconclusive: 0.116 µM [activator, full curve, poor fit] | –
c1ccc(COc2ccc(OCCCN3CCCCC3)cc2)cc1 | active: 7.94 µM | –
O=C(Cn1cc(C(F)(F)F)cc(Cl)c1=O)Nc1ccc(N2CCOCC2)cc1 | – | inactive: -2.07%
CC(C)(C)C(=O)Oc1ccc2cc(-c3ccc4ccccc4n3)c(=O)oc2c1 | inconclusive: 16.4 µM [activator, partial curve, poor fit] | –
COc1ccc(NC(=O)c2ccc3c(c2)OCO3)cc1 | active: 5.17 µM | –
COc1cccc(C(=O)Nc2ccc(N3CCCC3)cc2)c1 | inconclusive: 6.51 µM [activator, partial curve] | –
CCOC(=O)c1c(NC(=O)CN2CCCc3ccccc32)sc(C)c1C | inconclusive: 32.6 µM [activator, partial curve, poor fit] | –
N=c1c2ccccc2nnn1-c1ccc(C(F)(F)F)cc1 | inconclusive: 16.4 µM [activator, partial curve, poor fit] | –
Cc1nc(C)c(-c2csc(Nc3ncccc3C)n2)s1 | inconclusive: 16.4 µM [activator, partial curve] | –
